# Assay results as given in the supplement of paper PMC3334620.
# In all, about 33,000 sequences were measured (“E-score (-0.5 to 0.5)”: median about -0.012, highest 2% from about 0.29 on). This is one part of the list.
# Target: T1, Ybr033w (UniProt P38073)
# T1 sequence: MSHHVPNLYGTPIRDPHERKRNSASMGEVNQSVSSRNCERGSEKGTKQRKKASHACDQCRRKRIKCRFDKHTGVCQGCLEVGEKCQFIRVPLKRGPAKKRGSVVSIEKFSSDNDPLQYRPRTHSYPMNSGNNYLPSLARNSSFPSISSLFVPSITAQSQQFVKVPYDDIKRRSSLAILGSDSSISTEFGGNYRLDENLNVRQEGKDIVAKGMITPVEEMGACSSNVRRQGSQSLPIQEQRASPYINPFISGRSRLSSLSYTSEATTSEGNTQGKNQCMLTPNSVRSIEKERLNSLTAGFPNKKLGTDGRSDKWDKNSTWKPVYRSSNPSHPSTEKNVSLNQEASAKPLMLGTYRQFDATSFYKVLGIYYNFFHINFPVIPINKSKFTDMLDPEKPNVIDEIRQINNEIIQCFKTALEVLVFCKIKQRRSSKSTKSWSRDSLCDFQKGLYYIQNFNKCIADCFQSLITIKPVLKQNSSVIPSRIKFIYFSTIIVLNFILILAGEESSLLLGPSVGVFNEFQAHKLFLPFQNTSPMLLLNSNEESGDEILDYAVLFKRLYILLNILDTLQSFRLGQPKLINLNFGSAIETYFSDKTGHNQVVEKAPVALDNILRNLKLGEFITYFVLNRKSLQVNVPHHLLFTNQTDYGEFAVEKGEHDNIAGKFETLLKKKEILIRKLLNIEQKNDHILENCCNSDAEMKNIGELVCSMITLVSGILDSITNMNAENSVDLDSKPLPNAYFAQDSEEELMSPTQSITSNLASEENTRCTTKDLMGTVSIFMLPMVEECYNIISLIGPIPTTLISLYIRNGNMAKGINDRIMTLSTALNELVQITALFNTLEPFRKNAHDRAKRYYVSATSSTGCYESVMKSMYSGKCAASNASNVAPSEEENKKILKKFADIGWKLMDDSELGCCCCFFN
# Assay: PBM E-score (8-mer binding enrichment) (E-score (-0.5 to 0.5)); higher = stronger / more preferred TF binding; most listed sequences are background and not binding sites
# Conditions: protein concentration: 200 nM; construct: GST-full length
# Protocol: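 Universal 'all 10-mer' protein binding microarrays (Agilent AMADID 015681) probed with GST-tagged S. cerevisiae TFs (full-length or DBD) made by in vitro transcription/translation (PURExpress), about 100-200 nM. Bound TF was detected with fluorescent anti-GST. Each ungapped 8-mer (which stands for itself and its reverse complement) is scored by the PBM enrichment score (E-score), a modified Wilcoxon-Mann-Whitney statistic from -0.5 to +0.5, computed with the Universal PBM Analysis Suite. Scale: above 0.35 generally sequence-specific binding.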
row,Sequence,PBM E-score
1,CATGCGAA,0.115
2,CTGTAAAG,0.0804
3,CCCTCATC,-0.264
4,AAGGCGTC,-0.215
5,TAGATACA,0.23
6,ACCATGCC,-0.0448
7,GTCGAGGA,-0.224
8,AACCACAG,-0.0335
9,CAGGCCGG,-0.293
10,GCCGTACC,-0.0432
11,ACGAAATA,0.0653
12,ATCGTCAG,-0.178
13,ATCACTGA,0.0336
14,CTACTGCA,-0.0757
15,CGCCTGTC,-0.27
16,CAGTCAGG,-0.0906
17,CAAGAGAG,-0.0202
18,GAAATATA,0.327
19,ATCATTAC,0.186
20,ATACTGTG,-0.0238
21,ATTACTCG,0.132
22,ATGTGAGA,-0.0149
23,CGTGGCTC,-0.201
24,ATAGTCGC,-0.0353
25,CAACCCTA,-0.15

row,Sequence,PBM E-score
1,CCTCGCCC,-0.127
2,ACCACTCA,-0.0754
3,CCGCATTC,0.00482
4,AAGCCAGC,-0.0802
5,CCGGCCTA,-0.015
6,CTTCTATC,-0.0659
7,CGCGGCCA,-0.218
8,AATGGCTG,0.033
9,AGAACTTG,0.223
10,CATCCTCC,-0.103
11,GTAGCTTA,0.107
12,TATCTACA,0.188
13,CCGCCATC,-0.137
14,GAGGTAAC,0.0868
15,ACAAGAAC,0.235
16,GTTGATTA,0.27
17,CAGCACAA,0.0574
18,ACGGGGCT,-0.335
19,CTAATCAG,0.00376
20,GGGTCAGA,-0.32
21,CTCTACAA,0.055
22,AGATACAA,0.292
23,CACCGAGA,-0.117
24,AAGCGGGA,0.0463
25,ACAGCGGA,-0.0436

row,Sequence,PBM E-score
1,CCAACTGC,-0.0491
2,AACCGCAC,-0.0594
3,CCTTGATC,0.0691
4,CGCCCCAG,-0.207
5,ACATGAAG,0.061
6,CATCATTA,0.279
7,CACAATGG,0.172
8,AGCATATA,0.119
9,AGCGGCGG,0.0715
10,GAGCATGC,-0.124
11,TTATATAA,0.411
12,CGTACATC,-0.0343
13,ATGAGGGG,-0.206
14,ATACTCAC,0.153
15,GAGTAAGC,-0.05
16,CATAAACG,0.0742
17,ACACATCG,-0.0899
18,ATTGCTTA,0.24
19,ACCAGAAT,0.0712
20,ATAACGGC,0.17
21,CTGTCGCA,-0.121
22,ATTTGCAC,0.0602
23,CAGCTTAG,-0.132
24,GCCCGCCA,-0.251
25,CCACAGCG,0.0277

row,Sequence,PBM E-score
1,GGCGTCAA,-0.123
2,ATTTTGTG,0.291
3,ACCCGCAT,0.00348
4,GCACATGC,-0.195
5,GATTAGAC,0.0967
6,AGCGGACC,-0.266
7,CCGGATTA,0.34
8,GGTGCTAC,-0.21
9,CCAGCCTA,-0.18
10,TACTCAAA,0.266
11,CCGTGTTC,0.192
12,ACTTTGCA,0.259
13,ACCGATCA,0.175
14,ATTGGTAC,0.0837
15,TACATGCA,-0.0292
16,AACGAATC,0.108
17,CCCTTCCA,-0.186
18,ACGATATC,0.0478
19,GATTGAAC,0.189
20,ACCCAACT,0.0118
21,CAATAAAC,0.193
22,AATTGTTA,0.314
23,CAAAAACA,0.124
24,AATGCTCG,0.155
25,AACCCCGC,0.0465

row,Sequence,PBM E-score
1,AGCTTTGC,-0.0249
2,ACGAGAAA,0.187
3,AAATTGTC,0.192
4,AAGTCCCG,-0.245
5,AAGTTAAT,0.315
6,ACATATCC,0.105
7,ACTGTTCC,0.00585
8,TAGATGCA,-0.00507
9,GAGCCTCC,-0.139
10,AGTCGCGG,-0.291
11,CACTAGAG,0.0571
12,TGCGGAAA,0.213
13,ACGTTACA,0.0604
14,CGGGCTAG,-0.164
15,GGTGGAAC,0.147
16,TCTCGAAA,0.104
17,AACAGCGG,-0.146
18,GTCCGCAC,-0.0592
19,GATGAGCA,0.125
20,CAATTGCA,-0.167
21,ACGGACGT,-0.144
22,CACAAAGC,-0.0711
23,AATAGAAA,0.163
24,ACAAGCAG,0.0802
25,CACTTGCG,-0.00562

row,Sequence,PBM E-score
1,ATGTGCGC,-0.00629
2,CCCGACCA,0.00448
3,CGCTCGGC,-0.0689
4,AGGCGTAG,-0.194
5,CGGCTTCA,0.129
6,CAGTGGAG,-0.0254
7,CCACCTTC,-0.0528
8,CCCCGCAA,0.00531
9,CCTCTCAA,-0.0955
10,GGTTCGAA,0.173
11,CAGTGAGG,-0.197
12,AGTCCCAT,-0.17
13,TCTGTCCA,-0.0429
14,CGGATTTC,-0.0307
15,GAACCCTA,0.0389
16,AGAGTTTC,0.0522
17,CAGGAGTA,0.0206
18,AAATCTCG,0.0391
19,TCAGGGGA,-0.0478
20,CACACTTC,0.032
21,CCCGTCAA,-0.132
22,AGTAGACA,0.141
23,CATTGCCG,0.0273
24,GATGAATA,0.239
25,AAACAGCT,-0.0437

row,Sequence,PBM E-score
1,GAAGCAGA,-0.0137
2,GAAGCCAC,-0.0965
3,AGGTACGA,-0.0154
4,AACCTAAA,0.151
5,AGATGATA,0.16
6,GTGTCGAA,-0.0206
7,CCACCACA,-0.13
8,CCGACTTA,0.104
9,AACAAAGG,0.0298
10,AGCAGGAG,-0.133
11,AGAGTCAG,-0.2
12,ATTGTGTA,0.186
13,AACCCTGG,-0.065
14,AGTGGGTG,0.108
15,CTTTTTGA,0.137
16,CCTTGACA,-0.141
17,CGCTGTTA,-0.0679
18,AATGTGTG,0.152
19,ACTTAGCC,-0.173
20,ACATATCT,0.276
21,CATGTTCA,-0.104
22,AATCCTGA,0.154
